Experimental data published in paper doi:10.1101/282863 (bioRxiv, 2018).
Each block holds one binder with its values, some of them ahead of it.

Molecular target: Histone 4 (Saccharomyces cerevisiae) (Saccharomyces cerevisiae, UniProt P02309)
Test: time-resolved tryptophan fluorescence

binding result: binds
B1: Cse4 W7L (single tryptophan mutant, reports the C-terminus through W178) (natural protein)
chain: not shown

binding result: binds
B2: Cse4 W178L (single tryptophan mutant, reports the N-terminus through W7) (natural protein)
chain: not shown
